Reference: PMC10668032
The list shows a part of the results. At the low end of the ranking, values are background and their order means little.

What follows are sequences tested against SIX1 homeodomain (reference allele) (UniProt Q15475) (assay: universal protein binding microarray). Details: Universal all-10-mer PBM (8x60K, AMADID 030236), 300 nM GST-tagged protein, Alexa Fluor 488 anti-GST; buffer, salt, pH and temperature not stated; high values mean tight binding; most listed sequences are background and not binding sites; double strand, one strand shown.
With CCATGGAA the binding signal was -0.227 E-score.
Sequence TTCCAAAA has a binding signal of -0.238 E-score.
Sequence ATTGCCGA has a binding signal of -0.0271 E-score.
AAGCCCCG was tested, and the binding signal was -0.135 E-score.
CCATCTGC gave a binding signal of 0.0909 E-score.
ACTATTTC was tested, and the binding signal was -0.162 E-score.
ACTACTTA gave a binding signal of -0.102 E-score.
ACTCCAGC showed a binding signal of 0.0597 E-score.
In the case of GTGTAAAA, the binding signal is reported as -0.0529 E-score.
AGGATGGC showed a binding signal of -0.0238 E-score.
GACGATTA showed a binding signal of 0.00313 E-score.
With CTGCGGAC the binding signal was -0.148 E-score.
In the case of GGGTGACC, the binding signal is reported as -0.185 E-score.
Work on ATATAGTA yielded a binding signal of 0.304 E-score.
For CTCCCGTA, the binding signal was 0.117 E-score.
For ACACTTCG, the binding signal was -0.0736 E-score.
With ATCTTAGA the binding signal was 0.217 E-score.
Work on GATTGCAA yielded a binding signal of -0.105 E-score.
With AAAGGAAG the binding signal was -0.269 E-score.
For GCGTTCCC, the binding signal was -0.145 E-score.
Work on TCAAGGCA yielded a binding signal of -0.142 E-score.
With CCAGCGCG the binding signal was -0.044 E-score.
Sequence AGCAATGA has a binding signal of -0.174 E-score.
AATGTATG gave a binding signal of -0.139 E-score.
CGTTCCCA was tested, and the binding signal was -0.213 E-score.
AAACCTCC gave a binding signal of 0.0453 E-score.
With CGCCTCCG the binding signal was 0.0049 E-score.
Work on CAGAGAAA yielded a binding signal of 0.0176 E-score.
With CTGGATTC the binding signal was 0.0609 E-score.
TCCTTTAA was tested, and the binding signal was -0.0192 E-score.
Work on CCTTGTAC yielded a binding signal of -0.153 E-score.
In the case of CCGCTGAG, the binding signal is reported as 0.0556 E-score.
For AATTTTGG, the binding signal was -0.0838 E-score.
For ACGGAAAG, the binding signal was -0.0772 E-score.
Sequence ACCGGGAT has a binding signal of 0.313 E-score.
With CCACTTCC the binding signal was -0.132 E-score.
Sequence AAATGCTT has a binding signal of -0.247 E-score.
Sequence TACTCTAA has a binding signal of 0.11 E-score.
ATAGCTTG was tested, and the binding signal was 0.056 E-score.
Sequence TGTACCAA has a binding signal of -0.0246 E-score.
ACGACTAT showed a binding signal of 0.141 E-score.
With GAAACGTC the binding signal was -0.259 E-score.
For GCTTCGCA, the binding signal was -0.236 E-score.
GGGGCAAA was tested, and the binding signal was -0.03 E-score.
For GATCTACC, the binding signal was 0.343 E-score.
Work on GAATTGCC yielded a binding signal of -0.293 E-score.
ACCCAAGA gave a binding signal of -0.0172 E-score.
Work on GCGTATAA yielded a binding signal of 0.16 E-score.
With CAGACTTA the binding signal was -0.192 E-score.
Work on AACGGTCA yielded a binding signal of -0.156 E-score.
Sequence AGAGGCCA has a binding signal of -0.234 E-score.
Work on CTTGTACC yielded a binding signal of -0.143 E-score.
GCCGCAAC gave a binding signal of -0.054 E-score.
Work on ACGTTTCA yielded a binding signal of -0.0877 E-score.
In the case of GCAACGCA, the binding signal is reported as -0.26 E-score.
In the case of AAACGAAA, the binding signal is reported as -0.171 E-score.
CGTTGAAA was tested, and the binding signal was -0.226 E-score.
Work on AGTACAGG yielded a binding signal of -0.169 E-score.
For AGTTATGG, the binding signal was -0.281 E-score.
For ATACATTC, the binding signal was 0.188 E-score.
Sequence CAAGTTGC has a binding signal of -0.184 E-score.
In the case of ACAAGGCG, the binding signal is reported as -0.105 E-score.
Sequence AACGGTTG has a binding signal of -0.2 E-score.
Sequence GTCTTCCA has a binding signal of -0.295 E-score.
For CCTACACG, the binding signal was 0.0228 E-score.
CGTGCCAA showed a binding signal of -0.228 E-score.
CCTGAGGA gave a binding signal of 0.092 E-score.
ACGCGGCA was tested, and the binding signal was -0.233 E-score.
AATACGGA was tested, and the binding signal was 0.169 E-score.
Work on TAAGATTA yielded a binding signal of 0.0857 E-score.
GCTTCTTA was tested, and the binding signal was -0.0935 E-score.
GATTCACA was tested, and the binding signal was -0.0224 E-score.
GTGATCAC was tested, and the binding signal was 0.306 E-score.
GATCAGCC gave a binding signal of 0.293 E-score.
ACCGTGTC gave a binding signal of 0.0715 E-score.
AAGTTTAG showed a binding signal of -0.0875 E-score.
Sequence GACACGAC has a binding signal of 0.0694 E-score.
In the case of GTGTCTTA, the binding signal is reported as 0.0446 E-score.
ACCCATCC showed a binding signal of 0.134 E-score.
With TGTCGGAA the binding signal was 0.0291 E-score.
Work on ACATTCCT yielded a binding signal of -0.119 E-score.
Sequence ACATTGCC has a binding signal of -0.176 E-score.
AGCAACGA was tested, and the binding signal was 0.0876 E-score.
For CTCCGGTC, the binding signal was 0.0798 E-score.
Work on AACGTGCC yielded a binding signal of -0.27 E-score.
Work on AGCTACCG yielded a binding signal of -0.108 E-score.
In the case of TACGGCAA, the binding signal is reported as -0.062 E-score.
With ATCTGATA the binding signal was 0.446 E-score.
In the case of AGCACTAT, the binding signal is reported as 0.136 E-score.
CGTTTGCC was tested, and the binding signal was -0.063 E-score.
CAGAACAA showed a binding signal of 0.176 E-score.
Sequence TCAAAGCA has a binding signal of -0.0755 E-score.
Work on CTCCCACA yielded a binding signal of 0.00948 E-score.
With CAAAAATG the binding signal was 0.0133 E-score.
In the case of ACAGTTCT, the binding signal is reported as -0.0496 E-score.
Sequence CTGGGGAC has a binding signal of -0.19 E-score.
With CCCAGTAA the binding signal was 0.0044 E-score.
GCAATGGC gave a binding signal of -0.16 E-score.
For CAGAACGG, the binding signal was -0.1 E-score.
In the case of ACGAAGCC, the binding signal is reported as -0.181 E-score.
AATCAGGA was tested, and the binding signal was 0.15 E-score.
TCGGCGCA showed a binding signal of -0.0945 E-score.
CGGGAGAA gave a binding signal of -0.0174 E-score.
In the case of TCACAACA, the binding signal is reported as -0.051 E-score.
In the case of TCGTGTCA, the binding signal is reported as 0.125 E-score.
Sequence TATATAGA has a binding signal of 0.133 E-score.
CCTTCTCA was tested, and the binding signal was 0.319 E-score.
CCATACCC was tested, and the binding signal was 0.274 E-score.
With AAGACCTC the binding signal was -0.26 E-score.
